“And” between values parts separate entries of the source, which are not always exact repeats. Equal values may be shown once. Among all 94,000 compounds or so, about 4,000 (4.3%) were called active. This list was built around the results that the source calls inconclusive (neither active nor inactive); the mix of calls is not that of the screen. Calls come from the whole dose curve; as a rule, active = well fitted inhibition curve with a large enough effect; inconclusive = small, poorly fitted or top-dose-only effect; inactive = no such curve, though single readings can be large or run the other way. Potencies beside an inconclusive call are fits to weak or partial responses and may not hold up.
assay: Cytotoxic Profiling in NIH 3T3 Cell Line of Diverse Libraries Using Quantitative High-Throughput Screening; conditions: NIH 3T3 viability, CellTiter-Glo ATP luminescence, 48-72 h; activity change, negative = cytotoxicity: at 96.7 µM (top of the series) unless noted; series mostly up to 96.7 µM; note: nearly all actives have a fitted effect of over 55% in size
Procedure, shortened: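 NIH 3T3 cells at 400 cells/well received 23 nL of compound by pintool and were incubated 48 or 72 h at 37 °C. Viability was read as ATP-coupled CellTiter-Glo luminescence.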
% is set by controls: 0 for no effect and ±100 for the full control effect; potency is the fitted concentration of half-maximal effect; tags give direction and shape of the fitted curve.

Q: Which Potency does the source give for `CC(=O)Nc1cccc(-c2nc(-c3c(C)noc3C)cc3c2cc(C)n3CCN(C)C)c1` here?
A: Its Potency is inconclusive: 11.2 µM [inhibitor, full curve, poor fit].

Q: With `C=CCN(Cc1nc(-c2ccccc2)no1)C(=O)c1cccc(OC)c1OC` as the compound, how does the Potency read?
A: Its Potency is inconclusive: 79.4 µM [inhibitor, partial curve, poor fit].

Q: For `COc1ccccc1CCNC(=O)c1nc2cccnc2n(-c2ccccc2OC)c1=O`, which “activity change, negative = cytotoxicity” value is on record?
A: Its value is inactive: -15.7%.

Q: For `O=C(NCc1cccnc1)C1CCC(=O)N1C1CCNCC1` (configuration not stated), which “activity change, negative = cytotoxicity” value is on record?
A: Its value is inactive: -3.85%.

Q: With `COC(=O)CNC(=O)c1cc(-c2ccc(C(F)(F)F)cc2)nc2c1cnn2C` as the compound, how does the Potency read?
A: Its Potency is inconclusive: 44.7 µM [inhibitor, partial curve, poor fit].

Q: For `O=C(O)[C@@H]1CN(Cc2ccccc2)C[C@@H]1C(=O)N1CCOCC1`, which “activity change, negative = cytotoxicity” value is on record?
A: Its value is inactive: -16.6%.

Q: Which Potency does the source give for `Cc1cc(C(=O)N(Cc2ccncc2)Cc2cccc(OCCc3ccc(F)cc3)c2)n(C)n1` here?
A: Its Potency is inconclusive: 35.5 µM [inhibitor, partial curve, poor fit].

Q: Which Potency does the source give for `Cc1cccc(CNC(=O)c2cc3n(n2)CC(c2ccc4c(c2)OCO4)OC3)c1` (configuration not stated) here?
A: Its Potency is inconclusive: 44.7 µM [inhibitor, partial curve, poor fit].

Q: With `CCOc1ccc(CN2CCCC23Cc2ccccc2CNC3=O)cc1` (configuration not stated) as the compound, how does the “activity change, negative = cytotoxicity” value read?
A: Its value is inactive: -20.3%.

Q: With `CCOc1ccc(C(=O)N2CCN(C(=O)c3nnn4c3COC(c3ccc(Cl)cc3)C4)CC2)cc1` (configuration not stated) as the compound, how does the “outcome” value read?
A: The value was “inactive”.

Q: Which Potency does the source give for `Cc1cccc(C)c1-c1nc(C(=O)N2CCN(c3ncccn3)CC2)n2ccccc12` here?
A: The Potency was inconclusive: 50.1 µM [inhibitor, partial curve, poor fit] and active: 39.8 µM.

Q: With `O=C(c1ccc(Cl)nc1)N1CCC(C(=O)N2CCC(N3CCOC3=O)CC2)CC1` as the compound, how does the “activity change, negative = cytotoxicity” value read?
A: The value was inactive: -4.97%.

Q: With `COc1cccc(CNC(=O)c2cc3n(n2)CC(c2ccc4c(c2)OCO4)OC3)c1` (configuration not stated) as the compound, how does the Potency read?
A: The Potency was inconclusive: 50.1 µM [inhibitor, partial curve, poor fit].

Q: Which “activity change, negative = cytotoxicity” value does the source give for `COC[C@@H]1CN(S(=O)(=O)c2cccc(C)c2)C[C@H]1c1nc(C)no1` here?
A: The value was inactive: -5.23%.

Q: Which Potency does the source give for `CC(C)c1cc(NCC2CCCCCN2)nc(N)n1` (configuration not stated) here?
A: The Potency was inconclusive: 31.6 µM [inhibitor, partial curve, poor fit].

Q: With `O=C(Nc1ccc(Cl)cc1)N1CCn2c(nn(-c3ccc([N+](=O)[O-])cc3)c2=O)C1` as the compound, how does the Potency read?
A: The Potency was inconclusive: 39.8 µM [inhibitor, partial curve, poor fit].

Q: For `COc1ccc(NC(=O)N2C[C@@H]3C[C@H](C2)c2c(NC(=O)Nc4ccccc4)ccc(=O)n2C3)cc1`, which “activity change, negative = cytotoxicity” value is on record?
A: Its value is inactive: -16.9%.

Q: For `O=C(N1CCC(c2ccccc2)CC1)C1(c2ccc(Cl)cc2)CCOCC1`, which Potency is on record?
A: The Potency was inconclusive: 50.1 µM [inhibitor, partial curve, poor fit].

Q: With `COc1ccc(-c2cc(N3CCCC(NC(=O)C4CCCCC4)C3)n[nH]2)cc1` (configuration not stated) as the compound, how does the Potency read?
A: The Potency was inconclusive: 50.1 µM [inhibitor, partial curve, poor fit].

Q: With `COc1cccc(-c2ccc(CN3CCCC(N[S+](=O)([O-])c4cccs4)C3)cc2)c1` (configuration not stated) as the compound, how does the Potency read?
A: The Potency was active: 31.6 µM.

Q: Which “activity change, negative = cytotoxicity” value does the source give for `CC(C)NC(=O)N(C1CC1)C1CCOC2(CCN(C(=O)C3CC3)CC2)C1` (configuration not stated) here?
A: Its value is inactive: -10.3%.

Q: Which “activity change, negative = cytotoxicity” value does the source give for `N#Cc1cccc(S(=O)(=O)N[C@H]2[C@H](O)[C@H](O)C[C@@H]2c2ccc(C(F)(F)F)cc2)c1` here?
A: Its value is inactive: -4.95% [at 138 µM].

Q: With `COc1ccc(C(=O)NCc2nnc3ccc(-c4ccc(C)c(C)c4)nn23)cc1F` as the compound, how does the Potency read?
A: The Potency was inconclusive: 50.1 µM [inhibitor, partial curve, poor fit].

Q: Which “activity change, negative = cytotoxicity” value does the source give for `O=C(NCCN1CCCC1)C1Cn2cccc2C(=O)N1Cc1ccccc1` (configuration not stated) here?
A: Its value is inactive: -5.64%.

Q: For `O=C1Cc2c(-c3ccccc3Oc3ccccc3)n[nH]c2CN1CC1CCOCC1`, which Potency is on record?
A: Its Potency is inconclusive: 89.1 µM [inhibitor, partial curve, poor fit].

Q: Which Potency does the source give for `CC(=O)Nc1ccc(C(=O)NC[C@@H]2C=C(C)[C@H](CC(=O)NC3CCCC3)C[C@H]2C(C)C)cc1` here?
A: Its Potency is inconclusive: 70.8 µM [inhibitor, single point].

Q: Which “activity change, negative = cytotoxicity” value does the source give for `O=C(c1ccccc1F)N1CCN(C(=O)c2nc3cccnc3n(C3CCCC3)c2=O)CC1` here?
A: The value was inactive: -24.4%.

Q: With `COc1ccc(OC)c(S(=O)(=O)N2CCc3nc(-c4ccccc4)[nH]c3C2)c1` as the compound, how does the “activity change, negative = cytotoxicity” value read?
A: The value was inactive: -20.5%.

Q: With `N#Cc1ccccc1CN1CCNc2nc(CNCc3cnccn3)n(Cc3ccccc3)c2C1=O` as the compound, how does the Potency read?
A: The Potency was inconclusive: 70.8 µM [inhibitor, single point].

Q: With `Cc1nn(-c2ccccc2)c2c1C(C1CC1)N(CC1CN(C(=O)C3CC3)C1)C2=O` (configuration not stated) as the compound, how does the Potency read?
A: The Potency was active: 10 µM.

Q: With `CN1CC(c2ccccc2)CC2(CCN(C(=O)CCCn3ccnc3)CC2)C1` (configuration not stated) as the compound, how does the Potency read?
A: Its Potency is inconclusive: 79.4 µM [inhibitor, single point].

Q: For `Cc1nc2ccccc2n1Cc1cc(C(=O)N(C)CCOc2ccccc2)n[nH]1`, which Potency is on record?
A: Its Potency is inconclusive: 20 µM [inhibitor, partial curve, poor fit].

Q: With `CN(c1cc(=O)c2ccnc(-c3ccc([S+](C)(=O)[O-])cc3)c2o1)C1CCOCC1` as the compound, how does the Potency read?
A: Its Potency is inconclusive: 89.1 µM [inhibitor, partial curve, poor fit].

Q: With `Cc1noc(-c2ccccc2Cl)c1C(=O)NCCCc1ccccc1` as the compound, how does the Potency read?
A: Its Potency is inconclusive: 44.7 µM [inhibitor, partial curve, poor fit].

Q: Which “activity change, negative = cytotoxicity” value does the source give for `O=C(NCc1ccc(F)c(F)c1)C1CCc2nnc(C3CC3)n21` (configuration not stated) here?
A: The value was inactive: -12%.

Q: With `COc1cc(Nc2nc(-c3ccccc3)no2)cc(OC)c1OC` as the compound, how does the Potency read?
A: The Potency was inconclusive: 44.7 µM [inhibitor, partial curve, poor fit].

Q: Which Potency does the source give for `CCOC(=O)C1(Cc2ccc(F)cc2F)CCCN(Cc2cccc(OC)c2O)C1` (configuration not stated) here?
A: The Potency was inconclusive: 50.1 µM [inhibitor, partial curve, poor fit].

Q: With `O=C1CCCCC(C(=O)N2CC=C(c3ccccc3)CC2)N1` (configuration not stated) as the compound, how does the “activity change, negative = cytotoxicity” value read?
A: The value was inactive: 4.67%.

Q: Which Potency does the source give for `O=C(NCc1cccs1)[C@@H]1CCCN1c1nccc(Nc2ccccc2Cl)n1` here?
A: Its Potency is inconclusive: 50.1 µM [inhibitor, partial curve, poor fit].

Q: Which Potency does the source give for `CCc1ccc(C2CC(C(=O)NCc3ccco3)CN(C(=O)c3ccc(F)cc3)C2)cc1` (configuration not stated) here?
A: Its Potency is inconclusive: 50.1 µM [inhibitor, partial curve, poor fit].

Q: For `COCCNC(=O)CCCN1C(=O)COc2ccc(C(=O)COc3ccc(Cl)cc3C)cc21`, which “activity change, negative = cytotoxicity” value is on record?
A: Its value is inactive: -18.9%.

Q: With `CNC(=O)c1cccc(-c2cnc(Nc3cccnc3)c3c2CCO3)c1` as the compound, how does the Potency read?
A: Its Potency is inconclusive: 56.2 µM [inhibitor, partial curve, poor fit].

Q: With `Cc1ccccc1CN1CCc2ncc(C(=O)NCCC(C)C)n2CC1` as the compound, how does the Potency read?
A: The Potency was inconclusive: 112 µM [inhibitor, single point].

Q: For `Cc1cn2nc(C(=O)NCc3cc(F)cc(F)c3)cc2c(N(C)Cc2ccccc2)n1`, which Potency is on record?
A: The Potency was inconclusive: 11.2 µM [inhibitor, full curve, poor fit].

Q: With `OC1CCN(c2cc(C3CC(Nc4ncnc5sccc45)C3)ncn2)C1` (configuration not stated) as the compound, how does the Potency read?
A: The Potency was inconclusive: 22.4 µM [inhibitor, partial curve, poor fit].

Q: For `CN1CCC(N(C)CC2CCCN(CCc3ccc(F)cc3)C2)CC1` (configuration not stated), which Potency is on record?
A: The Potency was inconclusive: 44.7 µM [inhibitor, partial curve].

Q: For `COc1cccc(-c2cccc(CN3CCCC3C(=O)N3CCCC(C)C3)c2)c1` (configuration not stated), which Potency is on record?
A: The Potency was inconclusive: 50.1 µM [inhibitor, partial curve, poor fit].

Q: Which Potency does the source give for `CN1CCN(C(=O)C(C)(C)Oc2nn(Cc3cccc(Cl)c3)c3ccccc23)CC1` here?
A: Its Potency is inconclusive: 56.2 µM [inhibitor, partial curve, poor fit].

Q: Which “outcome” value does the source give for `CN1CCCN(C[C@@H]2CN(C(=O)CCn3cccn3)C[C@@H]2CO)CC1` here?
A: The value was “inactive”.

Q: Which Potency does the source give for `COc1ccc(Cl)cc1N1C(=O)[C@@H]2C[C@@H](NC(=O)Cc3cccs3)CCN2C1=O` here?
A: The Potency was inconclusive: 100 µM [inhibitor, single point].

Q: For `Cc1cc(C)c(CNC(=O)c2nc(-c3ccc(CN(C)C)cc3)cc3c2ccn3C(C)C)c(=O)[nH]1`, which Potency is on record?
A: Its Potency is active: 14.1 µM.

Q: For `COCCn1c(=O)c(C(=O)NCCc2ccc(Cl)cc2)nc2cccnc21`, which Potency is on record?
A: The Potency was inconclusive: 50.1 µM [inhibitor, partial curve, poor fit].

Q: With `COC(=O)c1cccc(CNCC2=CC(C)(C)COc3ccc(OC)cc32)c1` as the compound, how does the Potency read?
A: Its Potency is inconclusive: 44.7 µM [inhibitor, partial curve, poor fit].

Q: For `Cc1nc(C2CC(O)C2)cc(N2CC(N3CCOCC3)C2)n1` (configuration not stated), which “activity change, negative = cytotoxicity” value is on record?
A: The value was inactive: 4.61%.

Q: With `COc1cc2c(cc1OC)C(CNC(=O)C(C)C)N(C(=O)Nc1ccc(C)cc1)CC2` (configuration not stated) as the compound, how does the Potency read?
A: Its Potency is inconclusive: 79.4 µM [inhibitor, partial curve, poor fit].

Q: Which Potency does the source give for `CC(C)(C)CC(=O)NC[C@H]1OC[C@@H](N(Cc2ccccc2)Cc2ccccc2)[C@@H]1O` here?
A: Its Potency is inconclusive: 89.1 µM [inhibitor, partial curve, poor fit].

Q: With `O=C(NC1CCN(c2cc(-c3ccc(F)cc3)[nH]n2)CC1)c1cccc(F)c1` as the compound, how does the Potency read?
A: The Potency was inconclusive: 44.7 µM [inhibitor, partial curve, poor fit].

Q: For `COc1nccc(N2CCC(CC(=O)NCc3cccs3)CC2)n1`, which Potency is on record?
A: The Potency was inconclusive: 10 µM [inhibitor, partial curve, poor fit].

Q: Which “activity change, negative = cytotoxicity” value does the source give for `CCCCCNC(=O)c1cc(-c2ccc(F)cc2)nc2c1cnn2C` here?
A: Its value is inactive: -26.3%.

Q: With `CC(C)NC(=O)NC1CCN(c2ccc3nnc(-c4ccccc4)n3n2)CC1` as the compound, how does the “activity change, negative = cytotoxicity” value read?
A: The value was inactive: -31%.

Q: For `O=C(NCc1ccco1)N1CCc2nc3cc(-c4ccccc4Cl)[nH]n3c(=O)c2C1`, which Potency is on record?
A: Its Potency is inconclusive: 50.1 µM [inhibitor, partial curve, poor fit].

Q: For `N#Cc1cccc(-c2ccnc(N[C@H]3CO[C@H]4[C@@H]3OC[C@H]4OC(=O)Nc3cccc4ccccc34)n2)c1`, which Potency is on record?
A: Its Potency is inconclusive: 56.2 µM [inhibitor, partial curve, poor fit].

Source: PubChem BioAssay AID1345082 (National Center for Advancing Translational Sciences (NCATS), 2018)
